The record followed here is a collection of fitness landscapes (doi:10.1126/science.1257360).

First the molecules themselves.
B1: PhoQ; a variant is named by its letters at X, in order, P23837 (parent)
chain: MKKLLRLFFPLSLRVRFLLATAAVVLVLSLAYGMVALIGYSVSFDKTTFRLLRGESNLFYTLAKWENNKLHVELPENIDKQSPTMTLIYDENGQLLWAQRDVPWLMKMIQPDWLKSNGFHEIEADVNDTSLLLSGDHSIQQQLQEVREDDDDAEMTHSVAVNVYPATSRMPKLTIVVVDTIPVELKSSYMVWSWFIYVLSANLLLVIPLLWVAAWWSLRPIEALAKEVRELEEHNRELLNPATTRELTSLVRNLNRLLKSERERYDKYRTTLTDLTHSLKTPLXXLQXXLRSLRSEKMSVSDAEPVMLEQISRISQQIGYYLHRASMRGGTLLSRELHPVAPLLDNLTSALNKVYQRKGVNISLDISPEISFVGEQNDFVEVMGNVLDNACKYCLEFVEISARQTDEHLYIVVEDDGPGIPLSKREVIFDRGQRVDTLRPGQGVGLAVAREITEQYEGKIVAGESMLGGARMEVIFGRQHSAPKDE

Some of the results follow. Bounds are passed on as bounds.

The variants in this assay derive from B1. As to the kind of experiment: enrichment ratio after two sorts for PhoP signalling (ratio (wild type AVST 3.29)); higher = more functional. The conditions noted are these: with PhoP (E. coli).
Regarding HEIY, the enrichment ratio was at most 0.25.

Turning to VPPF, the enrichment ratio is at most 0.25.

As for KLGC, the enrichment ratio was at most 0.25.

On to NKVI, for which the enrichment ratio was at most 0.25.

LADI: the enrichment ratio is at most 0.25.

With CMVH, the enrichment ratio was at most 0.25.

IMIT: the enrichment ratio was at most 0.25.

Regarding MFDH, the enrichment ratio is at most 0.25.

In the case of TNSR, the enrichment ratio was at most 0.25.

Regarding IVMQ, the enrichment ratio is at most 0.25.

Regarding LQDG, the enrichment ratio was at most 0.25.

On to QMIV, for which the enrichment ratio is at most 0.25.

With HDPL, the enrichment ratio is at most 0.25.

For the variant INTT, the enrichment ratio was at most 0.25.

Consider VRGI, for which the enrichment ratio is at most 0.25.

Consider NISR, for which the enrichment ratio was at most 0.25.

Turning to GQDN, the enrichment ratio is at most 0.25.

Regarding GFHL, the enrichment ratio is at most 0.25.

YWLH: the enrichment ratio was at most 0.25.

As to WILK, the enrichment ratio is at most 0.25.

For the variant KHFG, the enrichment ratio was at most 0.25.

As for YSSE, the enrichment ratio was at most 0.25.

Consider LKMK, for which the enrichment ratio was at most 0.25.

Turning to GSNK, the enrichment ratio is at most 0.25.

On to LCVF, for which the enrichment ratio is at most 0.25.

Take WPHA: the enrichment ratio is at most 0.25.

Take LDAE: the enrichment ratio was at most 0.25.

For RQDT, the enrichment ratio is at most 0.25.

EYLN: the enrichment ratio is at most 0.25.

In the case of HVHT, the enrichment ratio is at most 0.25.

With VPTC, the enrichment ratio is at most 0.25.

Take IGTG: the enrichment ratio is at most 0.25.

Regarding PYYW, the enrichment ratio was at most 0.25.

LGAR: the enrichment ratio was at most 0.25.

YHRD: the enrichment ratio was at most 0.25.

With KPDV, the enrichment ratio was at most 0.25.

Turning to EMYC, the enrichment ratio was at most 0.25.

With TNMD, the enrichment ratio was at most 0.25.

Regarding LCKV, the enrichment ratio was at most 0.25.

With MCKG, the enrichment ratio is at most 0.25.

Turning to APPI, the enrichment ratio is at most 0.25.

With RMMY, the enrichment ratio is at most 0.25.

WPCK: the enrichment ratio is at most 0.25.

On to GASM, for which the enrichment ratio is 2.46.

DDCA: the enrichment ratio was at most 0.25.

For the variant TPWV, the enrichment ratio was at most 0.25.

On to YYHH, for which the enrichment ratio was at most 0.25.

As for VMNK, the enrichment ratio was at most 0.25.

For VRQQ, the enrichment ratio is at most 0.25.

For the variant TPEE, the enrichment ratio was at most 0.25.

In the case of SRVP, the enrichment ratio is at most 0.25.

Turning to FTTH, the enrichment ratio is at most 0.25.

With NGRS, the enrichment ratio was at most 0.25.

As for YDLD, the enrichment ratio was at most 0.25.

For the variant PKAC, the enrichment ratio was at most 0.25.

In the case of PCQV, the enrichment ratio is at most 0.25.

Turning to NPPF, the enrichment ratio is at most 0.25.

In the case of WDMI, the enrichment ratio was at most 0.25.

GDYK: the enrichment ratio was at most 0.25.

As for YLIG, the enrichment ratio was at most 0.25.

Take FEHW: the enrichment ratio was at most 0.25.

EQAV: the enrichment ratio was at most 0.25.

Turning to EQMS, the enrichment ratio is at most 0.25.

Turning to VVIY, the enrichment ratio is at most 0.25.

As for WFPN, the enrichment ratio was at most 0.25.

With GWWV, the enrichment ratio was at most 0.25.

On to VAFM, for which the enrichment ratio is 2.97.

For the variant QYDG, the enrichment ratio is at most 0.25.

Turning to NPSM, the enrichment ratio is at most 0.25.

Consider HRDK, for which the enrichment ratio is at most 0.25.

For YSPG, the enrichment ratio was at most 0.25.

For GQFQ, the enrichment ratio is at most 0.25.

For the variant SRSC, the enrichment ratio is at most 0.25.

Consider CFFK, for which the enrichment ratio is at most 0.25.

With HRWS, the enrichment ratio is at most 0.25.

On to WIRD, for which the enrichment ratio was at most 0.25.

In the case of GLCR, the enrichment ratio is at most 0.25.

With IATL, the enrichment ratio was at most 0.25.

Consider NVTL, for which the enrichment ratio is at most 0.25.

In the case of YNKH, the enrichment ratio is at most 0.25.

Regarding DQMS, the enrichment ratio is at most 0.25.

Regarding ECKQ, the enrichment ratio was at most 0.25.

As for NAKK, the enrichment ratio is at most 0.25.

As to FEEN, the enrichment ratio is at most 0.25.

Regarding LPIK, the enrichment ratio is at most 0.25.

WDLL: the enrichment ratio is at most 0.25.

Consider TQRY, for which the enrichment ratio was at most 0.25.

As to RHFS, the enrichment ratio was at most 0.25.

As for DQKL, the enrichment ratio was at most 0.25.

Consider ICGP, for which the enrichment ratio was at most 0.25.

Regarding NCFF, the enrichment ratio is at most 0.25.

As for FNQC, the enrichment ratio was at most 0.25.

In the case of MQHV, the enrichment ratio was at most 0.25.

Regarding HDTC, the enrichment ratio is at most 0.25.

For WHEL, the enrichment ratio was at most 0.25.

As to HYNQ, the enrichment ratio was at most 0.25.

Consider KRFG, for which the enrichment ratio is at most 0.25.

Take ISLE: the enrichment ratio stood at 2.04.

On to SIPE, for which the enrichment ratio is at most 0.25.

For LESS, the enrichment ratio is at most 0.25.

Turning to RIYT, the enrichment ratio is at most 0.25.

For the variant ADKV, the enrichment ratio was at most 0.25.

Take FIRM: the enrichment ratio was at most 0.25.

GMLD: the enrichment ratio was at most 0.25.

Regarding YYDR, the enrichment ratio is at most 0.25.

GYLW: the enrichment ratio is at most 0.25.

Consider IKSK, for which the enrichment ratio was at most 0.25.

As to SHKP, the enrichment ratio is at most 0.25.

On to VDIR, for which the enrichment ratio is at most 0.25.

As to EHFK, the enrichment ratio is at most 0.25.

On to MDIL, for which the enrichment ratio was at most 0.25.

Turning to VEDM, the enrichment ratio is at most 0.25.

For the variant AQWR, the enrichment ratio was at most 0.25.

With LDKY, the enrichment ratio is at most 0.25.

As to INDI, the enrichment ratio is at most 0.25.

Take MDQK: the enrichment ratio is at most 0.25.

For the variant PLHP, the enrichment ratio is at most 0.25.

As to IAKP, the enrichment ratio is at most 0.25.

For AEVT, the enrichment ratio was found to be 15.3.

On to LCMW, for which the enrichment ratio is at most 0.25.

As for RDFL, the enrichment ratio is at most 0.25.

Take HHCC: the enrichment ratio was at most 0.25.

Turning to QIDY, the enrichment ratio is at most 0.25.

Regarding GGSC, the enrichment ratio was 9.93.

For the variant KHVS, the enrichment ratio was at most 0.25.

Turning to CFNY, the enrichment ratio was at most 0.25.

Regarding YWQT, the enrichment ratio is at most 0.25.

On to GYFY, for which the enrichment ratio was at most 0.25.

Regarding YYIM, the enrichment ratio is at most 0.25.

As for FSAP, the enrichment ratio is at most 0.25.

As to GTEF, the enrichment ratio was at most 0.25.

AFAG: the enrichment ratio is at most 0.25.

With ADRD, the enrichment ratio is at most 0.25.

With HWVF, the enrichment ratio is at most 0.25.

For the variant EYVI, the enrichment ratio was at most 0.25.

With SDWS, the enrichment ratio is at most 0.25.

As to TDAC, the enrichment ratio was 2.51.

Take RCGF: the enrichment ratio was at most 0.25.

As to PCRE, the enrichment ratio is at most 0.25.

As for YHYF, the enrichment ratio was at most 0.25.

Consider LPHG, for which the enrichment ratio is at most 0.25.

Take LDLS: the enrichment ratio is at most 0.25.

Take WGPE: the enrichment ratio is at most 0.25.

Turning to FQML, the enrichment ratio worked out at 0.396.

Consider CLFI, for which the enrichment ratio is at most 0.25.

Take TRTR: the enrichment ratio is at most 0.25.

PRNS: the enrichment ratio was at most 0.25.

PSYT: the enrichment ratio is at most 0.25.

Consider EVMR, for which the enrichment ratio is at most 0.25.

For VAVT, the enrichment ratio is at most 0.25.

For YPFM, the enrichment ratio is at most 0.25.

Take MTFK: the enrichment ratio is at most 0.25.

With NWWF, the enrichment ratio was at most 0.25.

For TMTM, the enrichment ratio was 17.1.

WYDH: the enrichment ratio was at most 0.25.

For the variant RKHK, the enrichment ratio is at most 0.25.

For DEHC, the enrichment ratio is at most 0.25.

With VLRV, the enrichment ratio is at most 0.25.

With HTDR, the enrichment ratio was at most 0.25.

AHHL: the enrichment ratio is at most 0.25.

For the variant ADPG, the enrichment ratio was at most 0.25.

Take MFQW: the enrichment ratio was at most 0.25.

Regarding PMLE, the enrichment ratio is at most 0.25.

In the case of IFGQ, the enrichment ratio is at most 0.25.

On to LIDK, for which the enrichment ratio is at most 0.25.

On to FRTL, for which the enrichment ratio was at most 0.25.

As to TSSR, the enrichment ratio is at most 0.25.

PAFP: the enrichment ratio was at most 0.25.

In the case of LDSA, the enrichment ratio was 0.292.

Consider RAIK, for which the enrichment ratio is at most 0.25.

On to TEGT, for which the enrichment ratio was determined as 22.6.

As to DCYI, the enrichment ratio was at most 0.25.

As for NECG, the enrichment ratio is at most 0.25.

With SYDH, the enrichment ratio was at most 0.25.

For the variant GFNY, the enrichment ratio is at most 0.25.

On to VIEI, for which the enrichment ratio is at most 0.25.

For QKLP, the enrichment ratio came out at 1.15.

Regarding FQTV, the enrichment ratio is at most 0.25.

With DFPA, the enrichment ratio is at most 0.25.

Turning to WKHH, the enrichment ratio was at most 0.25.

With HVDL, the enrichment ratio was at most 0.25.

In the case of NLYN, the enrichment ratio is at most 0.25.

Consider DSWH, for which the enrichment ratio was at most 0.25.

SPFP: the enrichment ratio is at most 0.25.

For NRVN, the enrichment ratio is at most 0.25.

As to NKTK, the enrichment ratio is at most 0.25.

With KTIA, the enrichment ratio was at most 0.25.

As for LMCI, the enrichment ratio is at most 0.25.

Turning to ACQR, the enrichment ratio was at most 0.25.

Consider RNSI, for which the enrichment ratio was at most 0.25.

As to DSCY, the enrichment ratio was at most 0.25.

With TPCQ, the enrichment ratio is at most 0.25.

With GDPK, the enrichment ratio is at most 0.25.

On to KRCR, for which the enrichment ratio was at most 0.25.

Consider MYYI, for which the enrichment ratio was at most 0.25.
